# From PMC4336329 (PLoS ONE, 2015)
# Among all 310,000 compounds or so, about 2,200 (0.71%) showed an effect of 50% or more. Effects have a minus sign here. This is one part of the list.
# Biological target: human ether-à-go-go-related gene (hERG) potassium channel (human, UniProt Q12809)
# Experiment: primary screen, population patch clamp on CHO cells stably expressing hERG
# Sequence of human ether-à-go-go-related gene (hERG) potassium channel (Q12809 whole entry, looked up): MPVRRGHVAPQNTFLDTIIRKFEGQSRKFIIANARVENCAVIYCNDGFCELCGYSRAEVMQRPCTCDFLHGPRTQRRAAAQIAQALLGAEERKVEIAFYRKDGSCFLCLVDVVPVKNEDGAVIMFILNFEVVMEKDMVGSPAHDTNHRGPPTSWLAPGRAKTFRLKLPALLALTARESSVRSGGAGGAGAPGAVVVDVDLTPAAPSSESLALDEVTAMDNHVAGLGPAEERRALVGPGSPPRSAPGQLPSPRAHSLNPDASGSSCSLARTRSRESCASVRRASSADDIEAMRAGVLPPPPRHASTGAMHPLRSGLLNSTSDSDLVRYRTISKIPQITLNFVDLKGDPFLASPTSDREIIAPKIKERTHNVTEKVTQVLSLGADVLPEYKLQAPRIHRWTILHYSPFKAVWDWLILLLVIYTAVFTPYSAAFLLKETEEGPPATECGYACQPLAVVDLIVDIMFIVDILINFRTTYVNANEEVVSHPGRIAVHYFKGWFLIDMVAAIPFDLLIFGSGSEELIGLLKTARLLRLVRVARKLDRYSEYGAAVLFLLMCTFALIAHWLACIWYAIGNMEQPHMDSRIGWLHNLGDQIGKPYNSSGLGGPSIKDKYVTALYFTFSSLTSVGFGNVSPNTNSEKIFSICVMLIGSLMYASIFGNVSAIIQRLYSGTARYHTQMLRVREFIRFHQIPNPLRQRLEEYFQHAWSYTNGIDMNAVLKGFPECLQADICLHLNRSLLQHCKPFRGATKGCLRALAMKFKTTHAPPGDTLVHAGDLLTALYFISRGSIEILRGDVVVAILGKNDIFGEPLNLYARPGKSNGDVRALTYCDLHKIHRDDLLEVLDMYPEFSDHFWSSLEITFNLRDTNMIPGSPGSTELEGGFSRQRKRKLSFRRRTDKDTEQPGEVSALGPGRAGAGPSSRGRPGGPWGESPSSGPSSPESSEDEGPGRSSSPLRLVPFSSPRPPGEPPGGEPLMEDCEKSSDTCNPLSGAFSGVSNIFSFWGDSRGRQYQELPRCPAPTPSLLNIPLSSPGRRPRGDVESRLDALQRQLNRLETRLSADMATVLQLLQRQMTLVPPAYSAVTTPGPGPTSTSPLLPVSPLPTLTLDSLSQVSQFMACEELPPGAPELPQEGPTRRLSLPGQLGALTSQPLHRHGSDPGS
row,Compound,"hERG current change (%, negative = inhibition) at 1uM"
1,O=C(COC(=O)C1=COCCO1)NC1CCCCCCC1,8.14%
2,CN(C1CCS(=O)(=O)C1)S(=O)(=O)c1ccccc1[N+](=O)[O-] (centres unmarked),6.34%
3,Cc1ccc2c(c1)-c1c(cnn1CC(=O)NC(C)CCc1ccco1)CO2 (centres unmarked),9.65%
4,O=P(NCc1ccccc1)(Oc1ccccc1)Oc1ccccc1,2.22%
5,CN(C)CCCNCC(=O)Nc1ccc(Cl)cc1C(=O)c1ccccc1.O=C(O)C(=O)O,-21.2%
6,CC(C)CNS(=O)(=O)c1ccc(CCC(=O)NCc2ccco2)cc1,9.96%
7,Cn1c(=O)c2c(nc(OCC3COC(C)(C)O3)n2Cc2ccccc2F)n(C)c1=O (centres unmarked),-0.0798%
8,Cc1ccc(C)c(NC(=O)CSc2cccc3cccnc23)c1,13.8%
9,CCOC(=O)CSc1nc2ccccc2n2cnnc12,9.64%
10,Cc1ccc(NC(=O)C2C3CCC(O3)C2C(=O)O)cc1C (centres unmarked),9.77%
11,O=C(Oc1nsnc1N1CCOCC1)N1CCCCC1,7.7%
12,COC(=O)C(CCSC)NS(=O)(=O)c1ccc(Cl)cc1 (centres unmarked),5.89%
13,CC(C)/C=N/NC(=O)c1cccc(N2CCCC2=O)c1,6.05%
14,CCCn1nc(C(=O)OCC(=O)c2ccccc2)c2ccccc2c1=O,3.49%
15,COC(=O)c1cc(OC)c(OC)cc1NC(=O)CSc1ccccc1,11.3%
16,CCN(Cc1ccccc1)C(=O)CSc1nncn1C,6.6%
17,C/C(Cc1ccccc1)=N\NC(=O)CCCCCC(=O)N/N=C(\C)Cc1ccccc1,10.8%
18,O=C1c2ccccc2C(=O)N1c1ccc(S(=O)(=O)N2CCCCC2)cc1,16.3%
19,Cl.NCCc1nnc(SCc2ccc(F)cc2)o1,2.72%
20,C=CCN(C(=O)Cn1nnc2ccccc21)C(C(=O)NCCOC)c1ccc(OC)cc1OC (centres unmarked),11.7%
21,COc1ccc(COC(=O)c2cc(S(=O)(=O)N3CCCCC3)ccc2N2CCOCC2)cc1,7.08%
22,Cc1cc(OCC(=O)Nc2nccs2)c2c(C)cc(=O)oc2c1,11.1%

row,Compound,"hERG current change (%, negative = inhibition) at 1uM"
1,CN(C)C(=O)Oc1ccnc2cc(Cl)ccc12,6.33%
2,CC(C)(C)C(=O)NC(=S)Nc1ccc(F)cc1,10.8%
3,CC(C)NC(=O)COC(=O)c1ccc(Oc2ccccc2)cc1,9.38%
4,Cc1cc(NC(=O)C2CCN(S(=O)(=O)c3cnc[nH]3)CC2)ccc1Br,11.3%
5,CCOCCCNC(=O)CCC(=O)NNc1nc2ccccc2c2nc(-c3ccccc3)nn12,-2.83%
6,COc1ccc(NC2CCCN(C(=O)c3cccnc3SC)C2)cc1OC (centres unmarked),8.52%
7,CCn1cc(C(=O)N2CCN(c3ccc(OC)cc3)CC2)c2cc(OC)c(OC)cc2c1=O,5.58%
8,O=C1CN(C(=O)c2cccc(S(=O)(=O)N3CCCC3)c2)c2ccccc2N1,19.2%
9,CCOc1cc(N2CCOCC2)c(OCC)cc1NC(=O)[C@H](C)NC(=O)c1ccco1,14.8%
10,Cc1ccc(C(=O)NCC(=O)OCC(=O)N2CC(C)OC(C)C2)cc1 (centres unmarked),0.705%
11,COc1ccc(N(CC(=O)N2CCCC2)S(C)(=O)=O)cc1,17.4%
12,COc1ccc(NC(=O)c2oc3ccc(S(=O)(=O)N4CCC5(CC4)OCCO5)cc3c2C)cc1,4.23%
13,CC(=O)c1ccc(N2CCN(C(=O)CCS(=O)(=O)c3ccc4c(c3)CCN4C(C)=O)CC2)cc1,22.8%
14,Cc1ccc2nc(/C(C#N)=C\c3ccc([N+](=O)[O-])o3)[nH]c2c1,17.2%
15,Cc1ccc(NC(=O)CCNC(=O)c2ccccc2Cl)cc1S(=O)(=O)N1CCOCC1,-1.19%
16,COc1cc(/C=N/NC(N)=O)ccc1OC(=O)c1ccco1,8.18%
17,Cc1c(NS(C)(=O)=O)cccc1-c1nc2cccnc2s1,3.25%
18,O=C(NNc1ncc(C(F)(F)F)cc1Cl)c1ccc(Cl)c(Cl)c1,6.62%
19,OCCCNc1nc(-c2ccccc2)c2cc(Br)ccc2n1,14.4%
20,Cc1cc(C)n(Cc2ccc(F)cc2)c(=O)c1C#N,9.92%
21,COc1cccc(N(C(=O)c2cccs2)c2nc3ccccc3s2)c1,1.87%
22,O=C(NNC1=C(C(=O)C(F)(F)F)CCC1)c1cccc(O)c1,1.03%

row,Compound,"hERG current change (%, negative = inhibition) at 1uM"
1,COc1ccc(NC(=O)CC2SC(N3CCOCC3)=NC2=O)c(OC)c1 (centres unmarked),1.84%
2,CN1C(=O)N(C)C2(c3ccccc3)Nn3c(s/c(=C/c4ccco4)c3=O)=NC12c1ccccc1 (centres unmarked),-2.44%
3,O=C(NCCc1ccccc1)C(c1ccccc1)N(C(=O)c1csnn1)C1CC1 (centres unmarked),7.04%
4,CC(C)(C)c1ccc(-c2nnc(SCC(=O)O)n2N)cc1,3.8%
5,O=C(COc1cccc2cccnc12)N/N=C1\SCC(=O)N1Cc1ccccc1,-5.44%
6,COC(=O)c1ccc2c(c1)S(=O)(=O)NC(=NCCCN1CCOCC1)S2.Cl,12.1%
7,CC(=O)Nc1ccc(NC(=O)CSc2nc(N)c(NC(=O)c3ccco3)c(=O)[nH]2)cc1,17.6%
8,COc1cccc(OC)c1OCCCOc1cccc2cccnc12,13.9%
9,O=C(COc1ccccc1-c1ccccc1)N/N=C/c1ccc2ccccc2c1,11.3%
10,Cc1cc(-c2ccc(C(C)C)c(S(=O)(=O)Nc3cc(C)on3)c2)on1,10.2%
11,Cc1cc(C)cc(-n2c(SC(C)C(=O)NCc3ccc4c(c3)OCO4)nc3ccccc3c2=O)c1 (centres unmarked),12.1%
12,O=C(Nc1cc(Cl)ccn1)C1CCN(S(=O)(=O)c2cccs2)CC1,5.16%
13,C=CCn1c(O)c(C(CC)=Nc2ccc3c(c2)CCC3)c(=O)[nH]c1=O,7.05%
14,CC(C)(C)CC(=O)Nc1ccc(-c2nnc3n2CCCCC3)cc1,17.3%
15,O=C(c1cc([N+](=O)[O-])ccc1N1CCOCC1)N1CCN(c2ccc([N+](=O)[O-])cc2)CC1,-74%
16,O=C(/C=C/c1ccc(-c2ccccc2[N+](=O)[O-])o1)c1ccco1,22.3%
17,CCOC(=O)c1cc(C)n(-c2ccc(Cl)cc2)c1C,7.88%
18,Cc1ccc(Nc2nnc(SCC(=O)Nc3ncc(S(=O)(=O)c4ccc([N+](=O)[O-])cc4)s3)s2)cc1,1.76%
19,O=S(=O)(c1ccc2c(c1)OCCO2)N(Cc1ccc(F)cc1)Cc1nnc(-c2cccs2)o1,8.04%
20,COC(=O)c1c(C)[nH]c(C(=O)CN(C)CC(=O)Nc2cccc(F)c2)c1C,1.72%
21,CC(=O)N1CCc2cc(S(=O)(=O)NC(C)c3ccccc3)ccc21 (centres unmarked),10.5%
22,O=C(CSc1nc2ccccc2[nH]1)c1cccs1,3.62%

row,Compound,"hERG current change (%, negative = inhibition) at 1uM"
1,COc1ccc(OC)c(/C=N/n2c(C)nc3ccccc3c2=O)c1,11.6%
2,COc1ccc(-c2c(C)c3ccc(O)cc3oc2=O)cc1OC,16.3%
3,CCN(CCn1cccn1)C(=O)C1CCC(=O)N(CCc2cccc(F)c2)C1 (centres unmarked),13.6%
4,CC(C)CCn1c(N)c(C(=O)OCC2CCCO2)c2nc3ccccc3nc21 (centres unmarked),-1.73%
5,O=C(O)CCCNC(=O)c1ccc(NC(=O)Cc2ccc(Cl)cc2)cc1,13.9%
6,COc1ccc(CN2CCN(Cc3ccc(OC)c(OC)c3OC)CC2)cc1.O=C(O)C(=O)O,-11.5%
7,CC1(C)NC(=O)N(CC(=O)O)C1=O,8.5%
8,CC(=O)/C(=N/Nc1ccccc1)Sc1nnc(C(O)c2ccccc2)n1-c1ccccc1 (centres unmarked),0.944%
9,Cc1ccc(-c2nnn(CC(=O)N(c3ccccc3)C(C(=O)NCC3CCCO3)c3ccc(F)cc3)n2)o1 (centres unmarked),16.7%
10,O=C(c1ccco1)N1CCN(C(=O)c2cc(-c3ccncc3)nc3ccc(Br)cc23)CC1,-33.4%
11,CCN(Cc1ccccc1)C(=O)COC(=O)CNC(=O)c1ccc(C)s1,12.2%
12,Cc1ccc(-c2nnc(Nc3cccc(O)c3)c3ccccc23)cc1S(=O)(=O)NCCO,5.32%
13,O=C(NCCc1ccccc1)C(=O)Nc1nccs1,-1.13%
14,Clc1ccc(-c2csc3ncnc(NCCN4CCOCC4)c23)cc1,-2.51%
15,CN/C=C1\C(=O)C(C)(C)Oc2ccc3ccc(=O)oc3c21,15.8%
16,Cc1ccsc1-c1nc(CSCC(=O)N2CCN(c3ccccc3)CC2)c(C)o1,9.72%
17,CCc1c(C)nc(SCC(N)=O)c(C#N)c1C,-0.152%
18,CCOC(=O)N1CCN(C(=O)c2ccc3c(c2)NC(=O)/C(=C\c2cccc(C)c2)S3)CC1,-0.445%
19,O=C(NCCCc1ccccc1)c1c(O)nc2sccn2c1=O,5.52%
20,NC(=O)c1c(NC(=O)C2c3ccccc3Oc3ccccc32)sc2c1CCCCC2,19%
